# Measurements published in paper PMC11408250.
# Chains of the proteins cited; added tags and fusions are not shown. Residues count along the entry.
# UniProt P15116, residues 160-906: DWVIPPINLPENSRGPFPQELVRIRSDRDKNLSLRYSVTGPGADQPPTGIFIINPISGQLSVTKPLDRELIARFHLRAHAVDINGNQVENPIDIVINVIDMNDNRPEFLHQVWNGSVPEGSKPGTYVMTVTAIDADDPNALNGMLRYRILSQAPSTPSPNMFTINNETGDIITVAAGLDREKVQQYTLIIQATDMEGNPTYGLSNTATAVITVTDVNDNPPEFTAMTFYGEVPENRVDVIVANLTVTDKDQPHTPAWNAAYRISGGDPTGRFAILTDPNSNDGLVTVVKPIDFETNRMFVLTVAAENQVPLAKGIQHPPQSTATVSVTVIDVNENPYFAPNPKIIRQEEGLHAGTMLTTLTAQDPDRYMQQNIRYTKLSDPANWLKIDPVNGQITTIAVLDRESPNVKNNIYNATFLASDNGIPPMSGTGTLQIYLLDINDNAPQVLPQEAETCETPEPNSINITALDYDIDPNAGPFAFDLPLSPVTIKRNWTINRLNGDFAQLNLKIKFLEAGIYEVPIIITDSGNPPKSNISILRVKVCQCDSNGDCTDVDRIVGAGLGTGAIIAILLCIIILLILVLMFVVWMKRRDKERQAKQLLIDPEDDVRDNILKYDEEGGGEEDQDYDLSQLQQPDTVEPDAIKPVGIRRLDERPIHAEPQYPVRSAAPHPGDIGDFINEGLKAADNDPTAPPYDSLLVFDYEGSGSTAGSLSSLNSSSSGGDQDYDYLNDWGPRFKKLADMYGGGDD
# UniProt Q02248: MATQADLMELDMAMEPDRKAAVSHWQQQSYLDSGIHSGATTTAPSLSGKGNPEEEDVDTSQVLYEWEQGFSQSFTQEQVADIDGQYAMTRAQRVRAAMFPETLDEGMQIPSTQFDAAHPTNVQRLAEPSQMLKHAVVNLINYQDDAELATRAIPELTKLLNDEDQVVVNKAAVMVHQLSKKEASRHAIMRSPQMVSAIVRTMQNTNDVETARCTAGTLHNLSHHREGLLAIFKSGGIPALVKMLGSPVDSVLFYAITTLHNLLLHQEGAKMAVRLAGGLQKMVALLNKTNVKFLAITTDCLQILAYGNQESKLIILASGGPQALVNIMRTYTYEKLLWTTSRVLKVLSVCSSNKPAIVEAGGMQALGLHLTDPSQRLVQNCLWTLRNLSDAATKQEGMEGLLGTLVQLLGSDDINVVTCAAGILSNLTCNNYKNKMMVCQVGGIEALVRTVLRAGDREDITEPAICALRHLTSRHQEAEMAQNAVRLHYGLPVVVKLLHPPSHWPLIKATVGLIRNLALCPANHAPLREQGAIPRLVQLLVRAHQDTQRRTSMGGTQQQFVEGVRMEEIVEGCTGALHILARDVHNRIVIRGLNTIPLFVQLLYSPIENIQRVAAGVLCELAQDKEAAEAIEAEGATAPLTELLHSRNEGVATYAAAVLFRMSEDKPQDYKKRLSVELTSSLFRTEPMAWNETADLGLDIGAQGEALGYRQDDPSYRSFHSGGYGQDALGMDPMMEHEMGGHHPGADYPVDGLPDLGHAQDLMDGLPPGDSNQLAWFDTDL
# Results are given in words; binding and its absence hold for the method and conditions named. Binding seen in cells or lysates may run through a third protein. Some entries that bind do so weakly or less than the wild type. Sequences can lack the tags named with a protein.
# T1: PCDH19-HA-FLAG (Protocadherin 19, endogenous in Pcdh19-HA-FLAG mice) (mouse (endogenous in mouse brain)) (UniProt Q80TF3)
# T1 sequence: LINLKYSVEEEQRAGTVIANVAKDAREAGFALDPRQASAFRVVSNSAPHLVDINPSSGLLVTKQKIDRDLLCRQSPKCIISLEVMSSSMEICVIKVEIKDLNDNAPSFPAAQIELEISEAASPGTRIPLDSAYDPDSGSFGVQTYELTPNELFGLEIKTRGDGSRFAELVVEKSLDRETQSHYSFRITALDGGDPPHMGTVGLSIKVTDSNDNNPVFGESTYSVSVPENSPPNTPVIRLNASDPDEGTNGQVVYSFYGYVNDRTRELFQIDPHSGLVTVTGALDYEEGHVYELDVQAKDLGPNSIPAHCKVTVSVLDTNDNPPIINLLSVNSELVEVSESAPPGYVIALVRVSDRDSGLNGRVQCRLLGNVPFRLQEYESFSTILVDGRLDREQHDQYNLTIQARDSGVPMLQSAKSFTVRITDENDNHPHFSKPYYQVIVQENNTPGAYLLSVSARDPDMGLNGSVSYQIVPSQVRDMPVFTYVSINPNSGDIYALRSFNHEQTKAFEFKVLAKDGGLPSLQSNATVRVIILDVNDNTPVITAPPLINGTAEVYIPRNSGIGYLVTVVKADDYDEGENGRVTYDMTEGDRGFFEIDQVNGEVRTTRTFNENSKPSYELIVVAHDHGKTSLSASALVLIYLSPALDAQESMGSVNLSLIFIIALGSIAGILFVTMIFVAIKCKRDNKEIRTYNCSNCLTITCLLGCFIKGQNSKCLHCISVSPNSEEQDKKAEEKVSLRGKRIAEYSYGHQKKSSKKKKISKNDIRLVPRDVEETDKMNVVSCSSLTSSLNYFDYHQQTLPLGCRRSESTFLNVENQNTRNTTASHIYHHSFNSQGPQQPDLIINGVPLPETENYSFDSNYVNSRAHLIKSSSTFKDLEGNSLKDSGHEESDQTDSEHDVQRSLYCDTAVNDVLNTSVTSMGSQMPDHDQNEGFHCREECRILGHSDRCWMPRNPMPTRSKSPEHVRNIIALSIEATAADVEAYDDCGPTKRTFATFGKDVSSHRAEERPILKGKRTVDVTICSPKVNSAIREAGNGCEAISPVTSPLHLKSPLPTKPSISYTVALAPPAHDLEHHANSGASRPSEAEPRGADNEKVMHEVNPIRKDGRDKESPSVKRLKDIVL
# T2: PCDH10 (pCMV-PCDH10-Myc/HA) (UniProt Q9P2E7)
# T2 sequence: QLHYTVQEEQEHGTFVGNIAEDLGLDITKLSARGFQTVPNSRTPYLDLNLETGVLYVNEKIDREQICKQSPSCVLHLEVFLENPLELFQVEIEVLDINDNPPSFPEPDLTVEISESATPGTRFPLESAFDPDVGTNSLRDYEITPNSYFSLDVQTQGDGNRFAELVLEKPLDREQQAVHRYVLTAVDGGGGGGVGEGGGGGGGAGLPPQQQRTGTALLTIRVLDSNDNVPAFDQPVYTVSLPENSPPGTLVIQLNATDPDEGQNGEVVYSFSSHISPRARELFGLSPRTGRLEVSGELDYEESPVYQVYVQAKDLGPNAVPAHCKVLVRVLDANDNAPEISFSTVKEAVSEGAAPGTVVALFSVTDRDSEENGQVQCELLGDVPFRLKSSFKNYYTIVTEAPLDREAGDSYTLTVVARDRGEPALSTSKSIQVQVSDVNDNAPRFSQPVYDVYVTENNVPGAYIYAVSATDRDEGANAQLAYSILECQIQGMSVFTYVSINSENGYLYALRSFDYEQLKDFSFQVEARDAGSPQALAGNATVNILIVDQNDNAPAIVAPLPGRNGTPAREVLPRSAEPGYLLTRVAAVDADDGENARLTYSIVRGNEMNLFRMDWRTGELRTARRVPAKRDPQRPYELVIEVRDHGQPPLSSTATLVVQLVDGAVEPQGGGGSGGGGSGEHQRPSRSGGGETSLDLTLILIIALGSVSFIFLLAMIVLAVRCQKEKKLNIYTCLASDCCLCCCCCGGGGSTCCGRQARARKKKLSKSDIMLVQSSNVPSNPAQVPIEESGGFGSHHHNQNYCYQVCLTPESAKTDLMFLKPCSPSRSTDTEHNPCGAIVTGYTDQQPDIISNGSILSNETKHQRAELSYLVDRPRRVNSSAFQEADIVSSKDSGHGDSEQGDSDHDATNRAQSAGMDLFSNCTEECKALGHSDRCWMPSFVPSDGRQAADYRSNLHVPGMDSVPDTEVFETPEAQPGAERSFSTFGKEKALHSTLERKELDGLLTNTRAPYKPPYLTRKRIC
# T3: PCDH12 (pCMV-PCDH12-Myc/HA) (UniProt Q9NPG4)
# T3 sequence: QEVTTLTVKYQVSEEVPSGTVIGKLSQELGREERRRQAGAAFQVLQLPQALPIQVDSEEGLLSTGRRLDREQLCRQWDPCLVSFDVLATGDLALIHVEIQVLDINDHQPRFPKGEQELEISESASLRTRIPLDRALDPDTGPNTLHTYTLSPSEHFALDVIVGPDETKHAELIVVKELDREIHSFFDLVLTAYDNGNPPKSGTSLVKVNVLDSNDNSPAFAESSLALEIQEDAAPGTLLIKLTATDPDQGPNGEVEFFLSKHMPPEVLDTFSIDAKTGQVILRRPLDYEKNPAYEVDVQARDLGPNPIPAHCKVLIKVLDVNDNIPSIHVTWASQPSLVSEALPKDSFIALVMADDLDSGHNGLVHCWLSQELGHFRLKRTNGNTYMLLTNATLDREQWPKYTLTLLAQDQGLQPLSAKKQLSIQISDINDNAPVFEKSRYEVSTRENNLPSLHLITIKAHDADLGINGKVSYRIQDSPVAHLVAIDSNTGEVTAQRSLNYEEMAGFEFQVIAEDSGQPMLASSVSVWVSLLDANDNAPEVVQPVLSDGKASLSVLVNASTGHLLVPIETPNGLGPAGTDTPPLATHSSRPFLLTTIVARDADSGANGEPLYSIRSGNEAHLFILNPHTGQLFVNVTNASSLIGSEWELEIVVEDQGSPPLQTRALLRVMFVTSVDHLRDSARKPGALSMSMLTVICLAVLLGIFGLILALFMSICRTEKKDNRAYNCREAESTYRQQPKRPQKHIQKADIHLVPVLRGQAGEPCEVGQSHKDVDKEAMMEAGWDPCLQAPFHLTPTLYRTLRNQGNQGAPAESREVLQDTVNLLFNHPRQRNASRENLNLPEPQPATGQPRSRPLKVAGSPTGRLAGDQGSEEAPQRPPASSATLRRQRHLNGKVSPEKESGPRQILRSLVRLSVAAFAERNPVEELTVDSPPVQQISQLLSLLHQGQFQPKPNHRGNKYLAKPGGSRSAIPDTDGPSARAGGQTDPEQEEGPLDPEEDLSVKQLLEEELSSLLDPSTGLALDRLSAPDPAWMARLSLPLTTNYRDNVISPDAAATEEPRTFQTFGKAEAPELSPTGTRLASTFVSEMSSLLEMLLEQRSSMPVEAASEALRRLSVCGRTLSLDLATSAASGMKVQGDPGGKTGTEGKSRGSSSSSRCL
# T4: Myc-PCDH19-FLAG full length (FL), isoform with Exon 2 (+Ex2) (human) (UniProt Q8TAB3)
# T4 sequence: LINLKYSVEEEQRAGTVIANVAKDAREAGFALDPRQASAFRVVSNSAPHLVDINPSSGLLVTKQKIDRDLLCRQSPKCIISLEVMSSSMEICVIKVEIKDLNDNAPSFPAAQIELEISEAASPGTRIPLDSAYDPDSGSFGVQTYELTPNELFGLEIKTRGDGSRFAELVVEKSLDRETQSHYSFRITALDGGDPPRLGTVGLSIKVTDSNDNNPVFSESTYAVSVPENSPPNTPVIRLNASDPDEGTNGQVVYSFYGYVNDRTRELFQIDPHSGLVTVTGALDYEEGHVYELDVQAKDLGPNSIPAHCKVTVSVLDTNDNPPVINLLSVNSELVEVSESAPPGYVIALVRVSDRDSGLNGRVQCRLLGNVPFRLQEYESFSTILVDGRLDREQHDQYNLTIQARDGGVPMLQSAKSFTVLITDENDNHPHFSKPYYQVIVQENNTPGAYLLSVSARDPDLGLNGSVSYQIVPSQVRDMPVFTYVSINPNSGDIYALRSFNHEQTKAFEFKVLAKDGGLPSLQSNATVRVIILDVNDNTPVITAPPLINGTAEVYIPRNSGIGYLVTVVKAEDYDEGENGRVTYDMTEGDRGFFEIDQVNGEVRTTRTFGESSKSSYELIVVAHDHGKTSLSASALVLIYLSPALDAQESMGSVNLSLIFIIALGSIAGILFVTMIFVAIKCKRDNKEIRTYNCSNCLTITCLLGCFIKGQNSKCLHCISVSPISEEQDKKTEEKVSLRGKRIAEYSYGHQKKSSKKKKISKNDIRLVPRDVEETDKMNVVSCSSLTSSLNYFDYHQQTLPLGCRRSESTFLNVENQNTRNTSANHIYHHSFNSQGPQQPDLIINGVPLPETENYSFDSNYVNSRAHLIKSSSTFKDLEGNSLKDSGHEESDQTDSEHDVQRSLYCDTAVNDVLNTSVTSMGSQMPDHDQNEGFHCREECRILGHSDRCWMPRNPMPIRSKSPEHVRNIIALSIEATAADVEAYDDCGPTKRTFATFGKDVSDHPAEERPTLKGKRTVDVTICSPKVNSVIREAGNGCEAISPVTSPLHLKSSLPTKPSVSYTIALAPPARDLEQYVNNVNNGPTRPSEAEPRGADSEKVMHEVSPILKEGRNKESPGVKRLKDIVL
# B1: αN-catenin-HA (CTNNA2, human) (protein, UniProt P26232 1-953)
# chain: MTSATSPIILKWDPKSLEIRTLTVERLLEPLVTQVTTLVNTSNKGPSGKKKGRSKKAHVLAASVEQATQNFLEKGEQIAKESQDLKEELVAAVEDVRKQGETMRIASSEFADDPCSSVKRGTMVRAARALLSAVTRLLILADMADVMRLLSHLKIVEEALEAVKNATNEQDLANRFKEFGKEMVKLNYVAARRQQELKDPHCRDEMAAARGALKKNATMLYTASQAFLRHPDVAATRANRDYVFKQVQEAIAGISNAAQATSPTDEAKGHTGIGELAAALNEFDNKIILDPMTFSEARFRPSLEERLESIISGAALMADSSCTRDDRRERIVAECNAVRQALQDLLSEYMNNTGRKEKGDPLNIAIDKMTKKTRDLRRQLRKAVMDHISDSFLETNVPLLVLIEAAKSGNEKEVKEYAQVFREHANKLVEVANLACSISNNEEGVKLVRMAATQIDSLCPQVINAALTLAARPQSKVAQDNMDVFKDQWEKQVRVLTEAVDDITSVDDFLSVSENHILEDVNKCVIALQEGDVDTLDRTAGAIRGRAARVIHIINAEMENYEAGVYTEKVLEATKLLSETVMPRFAEQVEVAIEALSANVPQPFEENEFIDASRLVYDGVRDIRKAVLMIRTPEELEDDSDFEQEDYDVRSRTSVQTEDDQLIAGQSARAIMAQLPQEEKAKIAEQVEIFHQEKSKLDAEVAKWDDSGNDIIVLAKQMCMIMMEMTDFTRGKGPLKNTSDVINAAKKIAEAGSRMDKLARAVADQCPDSACKQDLLAYLQRIALYCHQLNICSKVKAEVQNLGGELIVSGTGVQSTFTTFYEVDCDVIDGGRASQLSTHLPTCAEGAPIGSGSSDSSMLDSATSLIQAAKNLMNAVVLTVKASYVASTKYQKVYGTAAVNSPVVSWKMKAPEKKPLVKREKPEEFQTRVRRGSQKKHISPVQALSEFKAMDSF
# What was measured:
# [1] = molecular target: T1, PCDH19-HA-FLAG (Protocadherin 19, endogenous in Pcdh19-HA-FLAG mice) (mouse (endogenous in mouse brain)); experiment: co-IP; anti-FLAG IP of PCDH19-HA-FLAG from mouse hippocampus/cortex lysate of Experiment 2, western blot for PCDH19 and N-cadherin (Supplementary Fig. 2)
# [2] = molecular target: T1, PCDH19-HA-FLAG (Protocadherin 19, endogenous in Pcdh19-HA-FLAG mice) (mouse (endogenous in mouse brain)); experiment: co-IP; PCDH19-HA-FLAG precipitated with anti-FLAG M2 or mouse IgG affinity gel from P5-6 mouse cortex/hippocampus lysate, overnight 4 °C; washes with 0.1% SDS in Wash Buffer; western blot with anti-PCDH19 and anti-β-catenin
# [3] = molecular target: T2, PCDH10 (pCMV-PCDH10-Myc/HA); experiment: co-IP; HEK293T transfected with epitope tagged CAPZA1, αN-catenin or β-catenin and PCDH10 or PCDH12; IP buffer; anti-c-Myc, anti-HA or anti-FLAG beads overnight at 4 °C; western blot
# [4] = molecular target: T3, PCDH12 (pCMV-PCDH12-Myc/HA); experiment: as above
# [5] = molecular target: T4, Myc-PCDH19-FLAG full length (FL), isoform with Exon 2 (+Ex2) (human); experiment: co-IP; HEK293T transfected with tagged constructs, lysed in IP buffer; Myc-PCDH19-FLAG precipitated with anti-FLAG agarose beads overnight at 4 °C; western blot for the HA-tagged partner
molecule,measurement,setting,value
"N-cadherin (mouse, endogenous) (from UniProt P15116 160-906)",binding,[1],binds
"β-catenin (mouse, endogenous) (from UniProt Q02248 1-781)",binding,[2],binds
B1,binding,[3],no binding
same,binding,[4],no binding
same,binding,[5],binds
